Laboratory results published in PubChem BioAssay AID493208 (National Center for Advancing Translational Sciences (NCATS), 2011).
The campaign covered roughly 44,000 compounds. About 340 (0.77%) were called active. About 5% were inconclusive and are not listed. The call rests on the fitted dose curve; in most records, active means well fitted inhibition curve with a large enough effect; inconclusive means small, poorly fitted or top-dose-only effect; inactive means flat fitted curve, though single readings scatter. The list shows a part of the results.

Assay: Acumen qHTS Assay for Inhibitors of the mTORC1 Signaling Pathway in MEF (Tsc2-/-, p53-/-) Cells: Sytravon;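 further: plate controls were DMSO for no effect and rapamycin for full effect; nearly all actives have a fitted effect of over 50% in size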
Details: phospho-rpS6 immunofluorescence/PI, 24 h; series mostly up to 38.3 µM; activity change, negative = inhibition: at the top concentration
Outline: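 Tsc2-/-, p53-/- mouse embryonic fibroblasts (empty-vector line) exposed to compound 24 hrs at 37 C, fixed, immunostained for phospho-rpS6 and counterstained with propidium iodide. Acumen laser scanning gives % positive cells from Alexa 488/PI ratio, thresholded using 7.5 nM rapamycin; PI count gives viability.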

Activity change, negative = inhibition, inactive:
COc1cccc(CNC(=O)CSC2=Nc3ccccc3N=C(c3ccc(F)cc3)C2)c1 -2.99%
CCOc1ccccc1CNC(=O)C1CCCN(c2nnc(C)c3c(C)n(-c4ccccc4)nc23)C1 (stereo not given) -13%
COc1ccc(Nc2ncnc3sc4c(c23)CCCC4)cc1 7.27%
CCOC(=O)C1CCN(C(=O)Cn2nc(CC)n3c(cc4sccc43)c2=O)CC1 -0.421%
O=C(NCc1ccccc1Cl)c1ccc(CS(=O)(=O)c2ccc(Br)cc2)o1 6.75%
Cc1c(CNC2CCCCC2)c(C(=O)O)c(C)n1Cc1ccc(Cl)cc1 2.84%
Cc1ccc(Cn2c3ccccc3c3cnn(CC(=O)Nc4cc(Cl)ccc4C)c(=O)c32)cc1 -5.57%
CCN(CC)S(=O)(=O)c1ccc2c(c1)N(CC(=O)N1CCN(c3cccc(C)c3C)CC1)C(=O)CO2 -14.8%
Cc1cc(C)c(NC(=O)Cn2c(=O)n(CCC(=O)N3CCc4ccccc4C3)c(=O)c3ccccc32)c(C)c1 -2.34%
CCc1nn(CCCC(=O)NCc2ccc(OC(C)C)cc2)c(=O)c2cc3occc3n12 -15%
O=C(CSc1n[nH]c(-c2ccccc2Cl)n1)NCCc1ccccc1 4.91%
COc1ccc(N2CCN(C(=O)c3cccn3-c3nnc(N4CCCC4)s3)CC2)cc1 -5.39%
CCOc1cc(CNS(=O)(=O)c2ccc3c(c2)C(C)(C)C(=O)N3)cc(OCC)c1OCC 0%
CC(NC(=O)Cn1ccc2cc(S(=O)(=O)N3CCCCCC3)ccc21)c1ccccc1 (stereo not given) -9.93%
COc1ccc(C)cc1NC(=O)Nc1nnc(N2CCCCC2)s1 4.15%
CCOC(=O)C1CCCN(c2nc3c(S(=O)(=O)c4ccc(CC)cc4)nnn3c3ccc(Cl)cc23)C1 (stereo not given) -9.27%
CCN(C(=O)CCc1nc(-c2ccc(C)cc2)no1)c1cccc(C(F)(F)F)c1 1.56%
CCOC(=O)c1c(C)[nH]c(CCC(=O)Nc2ccccc2C(F)(F)F)c1C -0.936%
CCCS(=O)(=O)N1CC(=O)N(c2cccc(F)c2)C(C)(C(=O)NC2CCCCCC2)C1 (stereo not given) 1.05%
COc1ccc(C(=O)Nc2ccc(S(=O)(=O)Nc3cc(C)nc(C)n3)cc2)cc1 -10.7%
O=C(CCS(=O)(=O)c1cc2c(cc1Cl)NC(=O)CO2)NCCc1ccccc1 6.58%
COc1cc(CNc2ccc3[nH]c(=O)[nH]c3c2)ccc1OCc1ccc(F)cc1Cl -12.8%
COC(=O)c1ccc2c(=O)n3nc(Nc4ccc(F)cc4F)sc3nc2c1 -3.91%
COc1ccc(CN2CCc3c(c(=O)n4ncc(C(=O)N5CCN(c6ccccc6F)CC5)c4n3C)C2)cc1 3.52%
Cc1cccc(N2CCN(C(=O)c3nn(C)c4c3CS(=O)(=O)c3ccccc3-4)CC2)c1C 7.95%
CS(=O)(=O)N(Cc1ccccc1)c1ccc(C(=O)Nc2cccc(Cl)c2)cc1 9.76%
COc1ccc(CNC(=O)c2ccc3c(O)c(S(=O)(=O)c4ccccc4)c(=O)[nH]c3c2)cc1 2.09%
COc1ccc(NC(=O)c2c(NC(=O)C(F)(F)F)sc3c2CCCCC3)cc1 -14.6%
CCCCC1CCC(C(=O)N2CC(=O)Nc3ccc(C)cc3C2c2ccc(F)cc2)CC1 (stereo not given) 0.713%
COc1ccc(Cn2ccc3nc(C)c(C(=O)N4CCN(c5cccc(OC)c5)CC4)cc3c2=O)cc1 -14.1%
O=C(Nc1cccc(C(F)(F)F)c1)Nc1nnc(N2CCCCCC2)s1 -12.2%
COCCCNC(=O)CN1C(=O)c2cccnc2Sc2ccccc21 -5.09%
CC(=O)c1cccc(NC(=O)CN2C(=O)CCc3cc(S(=O)(=O)N4CCCCC4)ccc32)c1 0%
COc1ccccc1N1CCN(C(=O)c2cc(-c3ccc(C)c(F)c3)on2)CC1 -1.61%
COc1cccc2cc(C(=O)Nc3ccc(CC(=O)O)cc3)c(=O)oc12 -4.57%
CCOc1ccc(S(=O)(=O)N2Cc3ccccc3CC2C(=O)Nc2ccc(NC(C)=O)cc2)cc1 (stereo not given) 1.95%
CCCCN1CC(c2nc3ccccc3n2CCCCOc2cc(C)cc(C)c2)CC1=O (stereo not given) 2.57%
COc1ccc(-c2cc(C(=O)Nc3sc4c(c3C(N)=O)CCCC4)no2)cc1 -2.53%
CCN(CC)CCNC(=O)C(=O)Nc1c2c(nn1-c1ccc(F)cc1)CSC2 1.46%
Cc1c(C(=O)OCCOc2ccccc2)[nH]c2c1C(=O)CC(c1ccc(C(C)(C)C)cc1)C2 (stereo not given) -3.99%
CCn1c2c(c(=O)n3ncc(C(=O)Nc4cc(Cl)ccc4OC)c13)CN(Cc1ccc(OC)cc1)CC2 -0.0481%
O=C(NCc1ccc(Cl)cc1)C1CCN(c2nn3cc(-c4ccc(F)cc4)nc3s2)CC1 7.3%
CCCNC(=O)CCC(=O)N1Cc2cccc(OC)c2Oc2ncccc21 -0.394%
CC1CN(C(=O)NCc2ccccc2)c2cc(Cl)ccc2O1 (stereo not given) 8.32%
COc1ccc(Cl)cc1NC(=O)c1cc(-c2ccc3c(c2)OCO3)on1 0.253%
COc1ccc(NC(=O)c2nc(S(C)(=O)=O)ncc2N(Cc2ccc(C)cc2)Cc2ccco2)cc1Cl -0.55%
COc1cccc(CNC(=O)c2cc(-c3ccc(Cl)s3)nc3ccccc23)c1 3.29%
CCCCc1cc(=O)oc2cc(C)c3c(C(C)(C)C)coc3c12 1.06%
COc1ccc(C)cc1NC(=O)N1CCN(S(=O)(=O)c2ccc3c(ccn3C)c2)CC1 -14%
Cc1ncc(CO)c2c1Oc1nc(-c3ccc(Cl)cc3)nc(SCC(=O)N3CCCCC3)c1C2 -2.42%
Cc1cccc(CSc2nc3c(sc4ccccc43)c(=O)n2CCC(=O)NC(C)C)c1 -9.77%
COc1ccc(C(CC(=O)O)NC(=O)c2cc3ccccc3oc2=O)cc1OC (stereo not given) 14.5%
Oc1ccc(Nc2nc3ccccc3n3cnnc23)cc1 1.89%
Cc1cccc(Cn2c(=O)n(Cc3ccc(C(=O)NC4CCN(Cc5ccccc5)CC4)cc3)c(=O)c3ccccc32)c1 -10.2%
CCOC(=O)c1cnc2c(C)cc(C)cc2c1Nc1cccc(C(=O)O)c1 10.9%
CCOCCCNC(=O)CN1C(=O)COc2ccc(S(=O)(=O)N3CCCCCC3)cc21 -23.4%
O=C(Nc1cccc2cccnc12)c1ccccc1[N+](=O)[O-] 3.32%
CC(=O)c1ccc(N2CCN(c3ccc(NC(=O)c4cccs4)cc3C(=O)O)CC2)cc1 0.816%
CC(C(=O)NCc1ccccc1Cl)n1ccc2cc(S(=O)(=O)N3CCCCC3)ccc21 (stereo not given) -6.2%
Cc1ccc(NC(=O)CSc2nnc3nc(C)cc(C)n23)cc1 -0.848%
